The record followed here is publication PMC12136788.

This is one part of the list.

T1: UNK ZnF1-3 (human, UniProt Q9C0B0 31-174)
T1 sequence: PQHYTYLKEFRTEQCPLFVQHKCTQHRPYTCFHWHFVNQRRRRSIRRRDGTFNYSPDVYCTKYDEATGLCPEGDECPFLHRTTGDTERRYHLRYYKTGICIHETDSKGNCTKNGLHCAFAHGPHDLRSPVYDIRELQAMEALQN

B1: chr3:176740097:176740098:-_ENSG00000177565_ENST00000430069|hu_mus|hu_hu_hu_mus_True|38_78 (ssRNA)
RNA: GGGAGUUCUACAGUCCGACGAUCUGUUUUGUAUACCACAAAAGGAGGCACUUUCAGUAUCUGUAAAAGGUGUUUAGUCCUAAAACAUACUCACCUAGAGAAUAAUUCAGGAAAACAAUCUGUUACACUCUAAGACCUACUCCACAACAGAGGAUUGAGCAUCA
B2: chr16:94645698:94645699:+_ENSMUSG00000040785_ENSMUST00000117648|mus_mus|FALSE|FALSE (ssRNA)
RNA: GGGAGUUCUACAGUCCGACGAUCAUAUCCACGGCACUUCUGAUAGCAACAAACAGCAUCUGGCACUGGGGGAAACUUGCAUUCUUCAACAAACUUCUCUAACAUCACCUUGACUUUUUCUGGCUUAGAUUCUUCAAUAAUCACCAACAGAGGAUUGAGCAUCA
B3: 158363983_158364548_362_CDS_ENSG00000168827_ENST00000264263|human|control|control (ssRNA)
RNA: GGGAGUUCUACAGUCCGACGAUCUGUGAAGUCCACAUGCCCAGGAGUAUCUAUAAUGUUAAUAUUGACAUCUUUCCACAUGGUGUAAGUGGCUGCUGACUGAAUAGUGAUUCCUCUUUGUCUCUCUAGUUCCAUGGAAUCCAUCAACAGAGGAUUGAGCAUCA
B4: chr14:62224477:62224478:+_ENSMUSG00000035235_ENSMUST00000039562|mus_mus|motif|central (ssRNA)
RNA: GGGAGUUCUACAGUCCGACGAUCUUCACCAAAAAUGAAAAACCCAUCUGUCAUCUGUUCCCAGUAAAAAACAGAUUGUUCGGUAAAAUCAGCAGACUUAGUCAGGUAAGAAUUGAAGCUUGAAAGAUAGUCUUUCCAAGUUGCCAACAGAGGAUUGAGCAUCA
B5: chr1:60038506:60038507:+_ENSMUSG00000041040_ENSMUST00000036540|mus_hu|FALSE|FALSE (ssRNA)
RNA: GGGAGUUCUACAGUCCGACGAUCAGCUUCCUCAAUUGGUUCUGGUGGUGGGAGUAGAGAAGCUGAUGGCAUGACUGUACUUGUUCCUCGAGAGACUCGGUCUUGCUCUGUGUUUGUAGACAGGGAGGCCACAGCAAUAGGCUGCAACAGAGGAUUGAGCAUCA
B6: chr7:140402705:140402706:+_ENSG00000090266_ENST00000247866|hu_mus|FALSE|FALSE (ssRNA)
RNA: GGGAGUUCUACAGUCCGACGAUCUGAGCUUAAGAACUCACCCUGGAUCACCUGGGACCGGGUAAGCUGGGGAAACUCCCUGUACCGGGGCUGAAUAUGUACACCACCGCCAGCGUGACGGACUCCACUGUCUCCAGCCGCCCGCAACAGAGGAUUGAGCAUCA
B7: chrX:98614190:98614191:-_ENSMUSG00000031310_ENSMUST00000121520|mus_mus|FALSE|FALSE (ssRNA)
RNA: GGGAGUUCUACAGUCCGACGAUCUGGGGGAGCCCAUCCUCGACUUGGGGCAGUCUGAGAUUCCAGCAGAUCCUCUCCAAAUUCCAUGUCUACUGGAAGGUCUCCAGCCAGGGGCUUCUCUGGCAGGGUCAAUGGGUCAAAUGGCAACAGAGGAUUGAGCAUCA
B8: chr3:149686237:149686238:-_ENSG00000070087_ENST00000452853|perfect_dup|FALSE|FALSE (ssRNA)
RNA: GGGAGUUCUACAGUCCGACGAUCCUCCCCACCUUGACUCUUUGUCCGGAUGUCCAUUGUGCAGUCACCAUCAACGUAUAGGCUAUCUCUGAUCACAGAACACUUCUUUGCUCCAAGAGUCAAACCGUUGGUAAAGAAACCUUCCAACAGAGGAUUGAGCAUCA
B9: chr2:113286301:113286302:+_ENSG00000114999_ENST00000233336|hu_mus|motif|central (ssRNA)
RNA: GGGAGUUCUACAGUCCGACGAUCAGCCGGCUGCUGCGGCACCUGCUCCGUGUCCGGGGGUGGGAAGACACUGGAUAUGGCGGUGUCCACGAUGCCCUGGCACAGUUCUGCAUAGAGUUUCUGGGCACACGCUGGGGCGCCGUUCAACAGAGGAUUGAGCAUCA
B10: chr3:9412954:9412955:+_ENSG00000134077_ENST00000452837|hu_mus|hu_hu_hu_mus_False|78_78 (ssRNA)
RNA: GGGAGUUCUACAGUCCGACGAUCGGUUGAUAUCUCUUCUUUGAUGGCUGGAUUUUCAUAAUAAUCUAAGAUAUGUGAAUCUGAAGUGCUGCUGGCAUGCUUUUUCUUACCAUCUUUCUCAUCUGCUUUGUCUCCUUGUCCACACAACAGAGGAUUGAGCAUCA
B11: chr16:94690093:94690094:+_ENSMUSG00000040785_ENSMUST00000117648|mus_hu|FALSE|FALSE (ssRNA)
RNA: GGGAGUUCUACAGUCCGACGAUCGGGCUGGGAUGACGGACACACAGCCUCGAUUCCAGGGGGAAAAAGUCUUAGUCGAUACUAAUUAAAAAGUGUUAAUGAUUUUUGAAAAUCAGAUUACAUCUAUAAAAGAUGAAAAGCAAACAACAGAGGAUUGAGCAUCA
B12: chr16:45382771:45382772:-_ENSMUSG00000022661_ENSMUST00000163230|mus_mus|mus_mus_mus_hu_True|48_58 (ssRNA)
RNA: GGGAGUUCUACAGUCCGACGAUCCUGGGUCAUGUUAUAAGACAAAUGGACAGGGAGGGCAUGCUUCUCAAAAAAUGUGAACUACUCACUAAGACUAACAAUAUUUAUCUAGCUAUAAAAAUAAGUUAAAUGAAUAAGUUAAGACAACAGAGGAUUGAGCAUCA
B13: chr8:122032151:122032152:-_ENSMUSG00000031835_ENSMUST00000081381|mus_mus|FALSE|FALSE (ssRNA)
RNA: GGGAGUUCUACAGUCCGACGAUCCGGUGAAAUCAAGAUCCCCAAAUUACAAAACAUGAUGGCAGUUGAUAGUUAUAAAAAAAUAAAGCGAAGGCUUGCAUCUCCCACAUCCGCGCAAGUCCCCUUCAGUUCAGUGUGUCCUCCCAACAGAGGAUUGAGCAUCA
B14: chr12:48362563:48362564:+_ENSG00000134291_ENST00000256686|hu_hu|hu_hu_hu_mus_False|58_58 (ssRNA)
RNA: GGGAGUUCUACAGUCCGACGAUCUCCGUCAAGCCCUUCGAUAGACCCUUGCGGGGGAAACUGUAAUCACUUUGUAUUUCUAAAAAAAAGAAACGCCAAAAACUUUCCAAAAAGCGGGGGUGGGGUGAGGCGGGAGGGGGAGGUCAACAGAGGAUUGAGCAUCA

The target in this assay is T1, UNK ZnF1-3. Nature of the assay: nsRBNS (natural sequence RNA bind-n-seq); RBNS binding buffer (assumed for nsRBNS): 25 mM Tris pH 7.5, 150 mM KCl, 3 mM MgCl2, 0.01% Triton X-100, 500 ug/ml BSA, 20 U/ml SUPERase-In, 4 C; UNK is unkempt and MSI1 is Musashi-1; names of the RNAs are library labels; protein concentration not given here; high values mean tight binding.
Take B1: the binding signal stood at 0.632 enrichment R. In the case of B2, the binding signal is 1.37 enrichment R.

B3 had a binding signal of 0.966 enrichment R.

Take B4: the binding signal worked out at 1.03 enrichment R. In the case of B5 it was 2.03 enrichment R.

As for B6, the binding signal is 0.693 enrichment R. Next, B7: 0.8 enrichment R; B8: 1.08 enrichment R. In the case of B9 it was 0.583 enrichment R; in that of B10, 0.559 enrichment R; in that of B11, 1.14 enrichment R. In the case of B12 it was 1.58 enrichment R; in that of B13, 2.61 enrichment R; in that of B14, 1.52 enrichment R.
